“Also recorded” adds a separate entry of the source. At least one peptide structure holds a part that was inferred or is arguable (an end, a ring closure or a residue). Ends that are not written are not given here. Peptide text beside a SMILES is read from it.
Key:
[1] = system: NEUTROPHIL (PMN) Fc Receptor IgG; test: Rosette inhibition assay, neutrophil IgG Fc receptor; assay type: binding; conditions: fresh human PMNs; IgG-coated ox erythrocytes; relative to intact monomeric myeloma IgG at equal concentration; NS = not significantly different from 0
BASOPHIL Fc Receptor IgG = test: Rosette inhibition assay, basophil IgG Fc receptor; assay type: binding, human; conditions: basophils from a patient with basophilic chronic myelogenous leukemia; relative to monomeric myeloma IgG; NS = not significantly different from 0
[2] = system: MONOCYTE/MACROPHAGE Fc Receptor IgG; test: Rosette inhibition assay, monocyte/macrophage IgG Fc receptor; assay type: binding; conditions: human monocytes or U937; relative to intact monomeric myeloma IgG at equal concentration; NS = not significantly different from 0
[3] = system: macrophage IgG Fc receptors of mice; conditions: Stanworth 1982; cited from earlier work
[4] = system: human monocyte IgG Fc receptors; conditions: literature (Ciccimarra 1975; Stanworth 1982; Ratcliffe and Stanworth 1982); Tuftsin also 'ourselves'; listed as Tyr-Ser-Lys-Leu-Thr-Val-Asp-Lys-Ser-Arg; cited from earlier work
[5] = molecular target: T1, IgE Fc receptors on a human lymphoblastoid cell line (wil-2wt) (Homo sapiens, UniProt P06734); conditions: Hamburger 1979; cited from earlier work
T1 construct: IgE Fc receptors on a human lymphoblastoid cell line (wil-2wt); host or cells: wil-2wt
T1 sequence (P06734 1-321): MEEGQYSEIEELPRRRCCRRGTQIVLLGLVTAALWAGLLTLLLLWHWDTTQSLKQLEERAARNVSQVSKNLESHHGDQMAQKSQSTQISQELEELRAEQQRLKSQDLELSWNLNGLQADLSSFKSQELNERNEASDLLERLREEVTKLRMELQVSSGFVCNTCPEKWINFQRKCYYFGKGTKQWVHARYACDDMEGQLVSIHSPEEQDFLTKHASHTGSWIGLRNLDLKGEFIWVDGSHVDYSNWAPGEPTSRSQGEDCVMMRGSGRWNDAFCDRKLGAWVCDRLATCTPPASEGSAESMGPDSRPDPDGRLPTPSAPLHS

[6] = system: human peripheral mononuclear cells; test: Spontaneous and lectin-induced mitogenesis, 125I-Iododeoxyuridine incorporation; assay type: cell-based; conditions: for COUNTS/MINUTE, PEPTIDE (100 μg/ml): day three of culture; for PEPTIDE INHIBITION: peptide 100 μg/ml, day three; for stimulated mitogenesis (proliferation) of mononuclear cells: peptide alone
[7] = Concanavalin A (Succinylated) 100. μg/ml
[8] = Lens culinaris agglutinin 25. μg/ml
[9] = Vicia faba agglutinin 12.50 μg/ml

For “PDARHSTTQPR [Pro--Asp--Ala--Arg--His--Ser--Thr--Thr--Gln--Pro--Arg]”, the “Rosette inhibition expressed as percent inhibition by monomeric IgG; neutrophil (PMN) Fc receptor, IgG” value [1] was 241%, the “Rosette inhibition expressed as percent inhibition by monomeric IgG; basophil Fc receptor, IgG” value (BASOPHIL Fc Receptor IgG) was ~ 120% and the “Rosette inhibition expressed as percent inhibition by monomeric IgG; monocyte/macrophage Fc receptor, IgG” value [2] was 103%.

In the case of `C[C@H](NC(=O)[C@H](CCCNC(=N)N)NC(=O)[C@@H](N)[C@@H](C)O)C(=O)N[C@@H](CCC(=O)O)C(=O)O` [Thr--Arg--Ala--Glu, Thr-Arg-Ala-Glu] (H-TRAE-OH), the “Rosette inhibition expressed as percent inhibition by monomeric IgG; basophil Fc receptor, IgG” value (BASOPHIL Fc Receptor IgG) is reported as 44% and the “Rosette inhibition expressed as percent inhibition by monomeric IgG; monocyte/macrophage Fc receptor, IgG” value [2] is reported as 24%.

For TVLHQNWLDGK, the “Rosette inhibition expressed as percent inhibition by monomeric IgG; neutrophil (PMN) Fc receptor, IgG” value [1] was 88%, the “Rosette inhibition expressed as percent inhibition by monomeric IgG; basophil Fc receptor, IgG” value (BASOPHIL Fc Receptor IgG) was 78% and the “Rosette inhibition expressed as percent inhibition by monomeric IgG; monocyte/macrophage Fc receptor, IgG” value [2] was 74%.

For YSKLTVDKSR [reference compound], the “blocking of human IgG binding to macrophage IgG Fc receptors of mice” value [3] is given as “blocked” and the “blocking of human IgG binding to human monocyte IgG Fc receptors” value [4] is given as “could block; also recorded: not able to demonstrate”.

For “PDARHS [Pro--Asp--Ala--Arg--His--Ser, Pro-Asp-Ala-Arg-His-Ser]”, the “blocking of IgE-binding to IgE Fc receptors on wil-2wt cells” value [5] is listed as “could block”, the “Rosette inhibition expressed as percent inhibition by monomeric IgG; neutrophil (PMN) Fc receptor, IgG” value [1] is listed as 95% and the “Rosette inhibition expressed as percent inhibition by monomeric IgG; basophil Fc receptor, IgG” value (BASOPHIL Fc Receptor IgG) is listed as 105%. For the same compound, the “Rosette inhibition expressed as percent inhibition by monomeric IgG; monocyte/macrophage Fc receptor, IgG” value [2] was 100%.

With `NCCCC[C@H](NC(=O)[C@H](CCC(N)=O)NC(=O)[C@@H](N)CCC(=O)O)C(=O)N[C@@H](CC(=O)O)C(=O)O` [Glu--Gln--Lys--Asp] (H-EQKD-OH) the “Rosette inhibition expressed as percent inhibition by monomeric IgG; basophil Fc receptor, IgG” value (BASOPHIL Fc Receptor IgG) was 18%.

For TISKAKGQPR, the “Rosette inhibition expressed as percent inhibition by monomeric IgG; neutrophil (PMN) Fc receptor, IgG” value [1] was 124%, the “COUNTS/MINUTE, PEPTIDE (100 μg/ml)” value ([6]; Concanavalin A 6.25 μg/ml) was 338 counts/minute and the “PEPTIDE INHIBITION” value ([6]; Concanavalin A 6.25 μg/ml) was 53. For the same compound, the “COUNTS/MINUTE, PEPTIDE (100 μg/ml)” value [6, 7] was 2989 counts/minute, the “PEPTIDE INHIBITION” value [6, 7] was 47 and the “COUNTS/MINUTE, PEPTIDE (100 μg/ml)” value ([6]; Culture medium only) was 343 counts/minute. For the same compound, the “PEPTIDE INHIBITION” value ([6]; Culture medium only, negative = stimulation) was -50, the “COUNTS/MINUTE, PEPTIDE (100 μg/ml)” value [6, 8] was 2391 counts/minute and the “PEPTIDE INHIBITION” value [6, 8] was 56. For the same compound, the “COUNTS/MINUTE, PEPTIDE (100 μg/ml)” value ([6]; Phytohemagglutinin 6.25 μg/ml) was 1897 counts/minute, the “PEPTIDE INHIBITION” value ([6]; Phytohemagglutinin 6.25 μg/ml) was 48 and the “COUNTS/MINUTE, PEPTIDE (100 μg/ml)” value ([6]; Polkweed mitogen 0.05 μg/ml) was 1413 counts/minute. For the same compound, the “PEPTIDE INHIBITION” value ([6]; Polkweed mitogen 0.05 μg/ml) was 42, the “COUNTS/MINUTE, PEPTIDE (100 μg/ml)” value [6, 9] was 1669 counts/minute and the “PEPTIDE INHIBITION” value [6, 9] was 24. The “effect on the mitogenic effects of the six mitogens” value ([6]; peptide 100 micrograms/ml) was “strongly inhibited”, the “stimulated mitogenesis (proliferation) of mononuclear cells” value (“stimulated mitogenesis (proliferation)” below) ([6]; day 3) was 50% and the “stimulated mitogenesis (proliferation)” value ([6]; day 5) was 331%. For the same compound, the “stimulated mitogenesis (proliferation)” value ([6]; day 7) was 283%, the “Rosette inhibition expressed as percent inhibition by monomeric IgG; basophil Fc receptor, IgG” value (BASOPHIL Fc Receptor IgG) was 108% and the “Rosette inhibition expressed as percent inhibition by monomeric IgG; monocyte/macrophage Fc receptor, IgG” value [2] was 100%.

With `CC(=O)N[C@@H](CCC(N)=O)C(=O)N1CCC[C@H]1C(=O)N[C@@H](CCC(=O)O)C(=O)N[C@@H](CC(N)=O)C(=O)O` [Ac--Gln--Pro--Glu--Asn, Ac-Gln-Pro-Glu-Asn] (Ac-QPEN-OH) the “Rosette inhibition expressed as percent inhibition by monomeric IgG; neutrophil (PMN) Fc receptor, IgG” value [1] was 95%, the “Rosette inhibition expressed as percent inhibition by monomeric IgG; basophil Fc receptor, IgG” value (BASOPHIL Fc Receptor IgG) was 74% and the “Rosette inhibition expressed as percent inhibition by monomeric IgG; monocyte/macrophage Fc receptor, IgG” value [2] was 19%.

For RSTTKTSGPR, the “Rosette inhibition expressed as percent inhibition by monomeric IgG; basophil Fc receptor, IgG” value (BASOPHIL Fc Receptor IgG) was 90% and the “Rosette inhibition expressed as percent inhibition by monomeric IgG; monocyte/macrophage Fc receptor, IgG” value [2] was 75%.

With `N=C(N)NCCC[C@H](NC(=O)[C@H](CO)NC(=O)[C@H](CCCCN)NC(=O)[C@@H](N)CC(=O)O)C(=O)O` [Asp--Lys--Ser--Arg, Asp-Lys-Ser-Arg] (H-DKSR-OH) the “Rosette inhibition expressed as percent inhibition by monomeric IgG; neutrophil (PMN) Fc receptor, IgG” value [1] was 27%, the “Rosette inhibition expressed as percent inhibition by monomeric IgG; basophil Fc receptor, IgG” value (BASOPHIL Fc Receptor IgG) was 64% and the “Rosette inhibition expressed as percent inhibition by monomeric IgG; monocyte/macrophage Fc receptor, IgG” value [2] was 49%.

Reference: patent US4579840A, “Method of blocking immune complex binding to immunoglobulin Fc receptors” (Immunetech Pharmaceuticals, priority 1983, dated 1986)
